Laboratory results from PMC6919601, “Identification of Plasmodium dipeptidyl aminopeptidase allosteric inhibitors by high throughput screening” (PLoS ONE, 2019).
The campaign covered roughly 110,000 compounds. About 230 (0.21%) showed an effect of 50% or more. This is one part of the list.

target: DPAP1 (Plasmodium falciparum, UniProt Q8IIJ9); assay: primary screen, percent inhibition; read by cleavage of a fluorogenic dipeptide substrate; higher = more effect of the substance; design: species or system P. falciparum D10 trophozoite lysates; single well
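Note: 30 min substrate incubation versus DMSO and 10 µM JCP410 controls.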

Chain of DPAP1 (Q8IIJ9 whole entry, looked up): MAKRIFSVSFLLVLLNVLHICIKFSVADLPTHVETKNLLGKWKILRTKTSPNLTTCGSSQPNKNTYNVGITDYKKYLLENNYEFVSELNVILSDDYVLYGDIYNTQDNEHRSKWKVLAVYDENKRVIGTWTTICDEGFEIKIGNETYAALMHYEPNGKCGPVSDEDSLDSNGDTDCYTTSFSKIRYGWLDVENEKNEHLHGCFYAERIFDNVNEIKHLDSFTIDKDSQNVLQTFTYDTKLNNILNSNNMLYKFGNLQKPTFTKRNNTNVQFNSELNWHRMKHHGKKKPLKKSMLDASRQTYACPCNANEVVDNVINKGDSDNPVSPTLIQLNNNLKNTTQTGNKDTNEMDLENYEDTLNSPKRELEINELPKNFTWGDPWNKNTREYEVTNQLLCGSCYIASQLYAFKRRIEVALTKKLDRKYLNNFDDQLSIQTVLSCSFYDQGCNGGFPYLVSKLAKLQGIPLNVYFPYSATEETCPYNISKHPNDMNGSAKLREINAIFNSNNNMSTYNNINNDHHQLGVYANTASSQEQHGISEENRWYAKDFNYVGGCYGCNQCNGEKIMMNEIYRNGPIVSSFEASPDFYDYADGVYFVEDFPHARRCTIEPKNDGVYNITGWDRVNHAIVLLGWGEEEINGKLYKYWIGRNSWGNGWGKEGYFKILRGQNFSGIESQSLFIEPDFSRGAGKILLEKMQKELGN

| SMILES | % Inhibition @ 10 uM [%] |
| --- | --- |
| COc1cc(C2C3=C(O)CCCC3=NC(C)=C2C(=O)Nc2cc(C)ccn2)ccc1OCC(N)=O (stereo not drawn) | -1.98 |
| O=C(Cc1noc2ccccc12)NCc1ccccc1Cl | -8.99 |
| CCC1CCCCN1C(=O)Cn1c2ccc(OC)cc2c2nc3n(c(=O)c21)CCS3 (stereo not drawn) | -6.65 |
| CCc1c(O)n(-c2ccccc2)c(SCc2ccccc2)nc1=O | -2.02 |
| COc1nc2c(c(=O)n(C)c(=O)n2C)n1Cc1c(Cl)cccc1Cl | 3.21 |
| CCN(CC)c1cnn(-c2ccccc2)c(=O)c1N | 0.273 |
| COc1ccc(OC)c(Cn2c(-c3cc(OC)ccc3OC)nc3ccccc32)c1 | 2.73 |
| CCOC(=O)c1c(NC(=O)N2CCC(CN3CCc4ccccc4C3)CC2)sc2c1CCCC2 | 2.22 |
| CCOC(=O)c1cc(-c2cccc(N)c2)nc2ccccc12 | 5.01 |
| COC(=O)c1ccc(/C=c2\sc3nc(-c4ccccc4C)nn3c2=O)cc1 | -2.98 |
| COc1ccc(S(=O)(=O)c2c(C(=O)c3ccc(C)cc3)cnc3ccc(OC)cc23)cc1 | -9.3 |
| CCOCCCNC(=O)c1ccc2c(Cl)c3c(nc2c1)CCCC3 | -3.06 |
| Cc1ccc(CNC(=O)[C@H](CCS(C)(=O)=O)N2Cc3ccccc3C2=O)cc1 | 2.93 |
| Cc1ccc(C2CC(c3ccco3)n3ncnc3N2)cc1 (stereo not drawn) | -10.5 |
| CCOC(=O)N1CCN(C(=O)c2nc(-c3cccc(F)c3)n3c2CCCCC3)CC1 | -7.8 |
| Cc1ccc(N2C(N)=C(C#N)C(c3cccnc3)C3=C2CC(C)(C)CC3=O)cc1 (stereo not drawn) | -1.44 |
| Cc1cc(-c2ccc(O)cc2)nc2ccc3ccccc3c12 | -1.97 |
| COc1ccc(-c2cc3c(=O)n(CC(=O)N4CCN(Cc5ccccc5)CC4)ncn3n2)cc1 | 2.27 |
| O=S(=O)(C=C(c1ccccc1)c1ccccc1)c1ccccc1 | -3.26 |
| CC1(C(=O)NC2CCCCCC2)Cc2ccccc2C(=O)N1Cc1ccc(F)cc1 (stereo not drawn) | 1.72 |
| COc1ccc(CNS(=O)(=O)c2ccc3c(c2)OCC(C(=O)N2CCCCC2)O3)cc1 (stereo not drawn) | 7.04 |

| SMILES | % Inhibition @ 10 uM [%] |
| --- | --- |
| Cc1ccc(-c2cn3c(n2)sc2cc(C(=O)N4CCC(N5CCCCC5)CC4)ccc23)cc1 | 27.5 |
| CCOc1ccc2c(c1)C(SCC(=O)NCc1ccc(F)cc1)CC1(CCCC1)O2 (stereo not drawn) | 4.47 |
| CC(NC(=O)c1cc2c(Cl)ccc3c2n1CCO3)c1ccccc1 (stereo not drawn) | 4.28 |
| CCOC(=O)c1[nH]c(C)c(C(=O)NCCCN(C)C)c1C | 0.0579 |
| Cc1cc(C)c(NC(=O)CN2CCN(C/C=C/c3ccccc3)CC2)c(C)c1 | 6.77 |
| Cn1c(=O)c2c(nc(N3CCNCC3)n2C)n(C)c1=O | 2.73 |
| Cc1cccc(OCCCCCCc2c(C)n[nH]c2C)c1C | 0.0792 |
| COc1ccc(CCNC(=O)CN2C(=O)c3ccccc3C2=O)cc1 | 1.33 |
| O=C(CN1C(=O)C2CCCCC2C1=O)Nn1cnnc1 (stereo not drawn) | 3.27 |
| O=C(c1ccc(N2CCOCC2)cc1)c1cc(C(=O)N2CCOCC2)ccc1-c1ccc(Br)cc1 | -2.12 |
| CCOc1ccc(C(=O)N2Cc3cc(OC)c(OC)cc3C3(CCCC3)C2)cc1OC | -1.72 |
| OC1(c2ccc(Br)cc2)CCN(Cc2cccc(Br)c2)CC1 | -8.55 |
| Cc1cc(C)c(S(=O)(=O)NCC2CCC(C(=O)N3CCCC3)CC2)c(C)c1 (stereo not drawn) | -0.971 |
| CCCCOc1ccc(-c2ncc(C(=O)OCC)c(N)n2)cc1 | -2.12 |
| CCN(CC)CCCN(C)C(=O)Cn1ncc2c3ccccc3nc-2c1O | 1.93 |
| O=C(NCCc1ccccc1)c1c2c(nc3ccccc13)CCCC2 | -7.85 |
| CCC(C)Nc1nc2c(c(=O)n(C)c(=O)n2C)n1Cc1ccccc1 (stereo not drawn) | -1.6 |
| COc1ccc(N(CC(=O)N2CCCCCC2)S(=O)(=O)c2ccccc2)cc1Cl | -0.251 |
| C=CCSc1ncc(Cl)c(C(=O)Nc2sc3c(c2C(=O)NCC)CCCC3)n1 | -4.54 |
| CCCCN(CCCC)CCNC(=O)Cn1nc(-c2ccccc2)ccc1=O | 0.514 |
| Cn1c(=S)[nH]c2c(c1=O)C1(CCCC1)Cc1ccccc1-2 | -4.15 |

| SMILES | % Inhibition @ 10 uM [%] |
| --- | --- |
| COC(=O)c1ccc2c(O)c(S(=O)(=O)c3ccc(OC)cc3)c(O)nc2c1 | -0.326 |
| Cc1nnc2c(SCc3ccccc3)nc3ccccc3n12 | -0.0709 |
| CCOc1cccc(C2C(C(=O)OC)=CN(Cc3ccc(OC)cc3)C=C2C(=O)OC)c1 | -1.69 |
| CCN1CCN(Cc2cc(C(C)(C)C)c(O)c(C(C)(C)C)c2)CC1 | 1.63 |
| CCCCCc1nc(N)c(C#N)c(-c2ccccc2)c1CCCC | -5.9 |
| N#CCNC(=O)c1ccc([N+](=O)[O-])cc1C(=O)N1CCOCC1 | -6.98 |
| COC(=O)c1ccc2c(c1)C(=O)/C(=C/c1ccc(OCC(C)C)c(OC)c1)O2 | -3.08 |
| COCC(O)CSc1nc2ccccc2o1 (stereo not drawn) | -3.04 |
| O=C(Nc1ccccc1)Nc1ccccc1Cl | -3.72 |
| COc1ccc(N2C(=O)NC(NC(=O)c3ccc(F)cc3)(C(F)(F)F)C2=O)cc1 (stereo not drawn) | 0.189 |
| Cc1ccc(-c2c(C(=O)N3CCC(N4CCCCC4)CC3)oc(=O)c3ccccc23)cc1 | 1.9 |
| Cc1cccc(C(=O)Nc2ccc(F)cc2)n1 | 5.29 |
| CN(C)CC(C)(C)CNC1CC2CCC(C1)N2C (stereo not drawn) | -0.0953 |
| COc1ccc(OC)c(N/C=C/C(=O)c2ccc(C)cc2)c1 | 6.78 |
| CN(Cc1ccccc1)c1nnc(N)s1 | 1.42 |
| CCOC(=O)c1c(C)oc2nc(C)nc(N3CCN(C(=O)c4ccco4)CC3)c12 | -1.43 |
| CC(C)(C)OC(=O)N[C@@H](Cc1cc(Cl)c(O)c(Cl)c1)C(=O)NCC#N | -6.46 |
| CN(C)CCNC(=O)C12CC3(C)CC(C)(CC(C)(C3)C1)C2 | 1.54 |
| O=C(CC(=O)c1ccccc1O)c1ccco1 | 1.52 |
| COc1ccc(C2CC(=O)NC(SCC(N)=O)=C2C#N)cc1OC (stereo not drawn) | -7.3 |
| Cc1ccc(S(=O)(=O)NCCc2nnc3ccc(SCC(N)=O)nn23)cc1 | -1.97 |
